From the supplement of paper PMC11417369
The list shows a part of the results.

test system: PfAP2-HC AP2 domain (GST-tagged); assay: gcPBM binding intensity (ln(normalized median fluorescence intensity)); higher = stronger DNA binding
Summary of the method: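 The binding buffer was 1× PBS containing 1% milk, 0.2 mg/ml BSA, 0.5% salmon testes DNA and 0.03% Triton X-100. In it, GST-tagged P. falciparum DNA-binding domains expressed in E. coli were applied for 1 h to an Agilent 4 × 180k array of primer-extended double-stranded 36-bp intergenic genomic probes plus negative controls. Binding intensity, read with Alexa488 anti-GST antibody and a 488 nm scan, is the highest Masliner-normalised natural-log median intensity across replicate spots of either probe orientation.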

Sequence	gcPBM binding intensity (ln)
AAAAAAAAATATAACAGTACATAAACATATGAATAT [XGTACX_site7093]	9.71
TTTTATAATTTCTTCTGTACATATATATGAAAATAT [XGTACX_site74]	9.4
TCAACCAAAACATAAGCATGCAATATATTTTTATAC [TGCATGCA_site560]	9.59
TATTCTAAAGAAATTACACACATGCAATGAAAAAAA [CACACA_site6895]	9.74
AAAAATAAACGACAGTGTACTAAATATTTAATTTTC [XGTACX_site3580]	9.57
CAGGGCAGGGGGAAGGGTACACATAAAAGAAAATAA [XGTACX_site172]	9.9
TATAAATATATATTTTGTACTTAATATAAATTTATA [XGTACX_site7996]	9.48
ATACAAATATACTTTTGTACGAAGAAATATATATAT [XGTACX_site3912]	9.68
ATACAATTTATTTTAACACACGAATGAATTGATTAT [CACACA_site4160]	9.65
GGTTCATATCTTAACACACACATACATATTATAGAT [CACACA_site7392]	10.1
TAAAGAAACTATTCAACACACGGTCTAATTATTACA [CACACA_site1064]	9.72
ATAAAAAAAATAAAAAGTACAAAAAAAAAAAATGGA [XGTACX_site136]	10
TTTTGAAGTAACAAATAAATAAATAAATATATAAAA [GTGCAC_negctrl_site517]	9.48
ATTCATTCATATGTTACACACACACCGACACATAAA [CACACA_site5749]	10.4
TATTAAACTGGACACACACACACACCCATATATAAA [CACACA_site4579]	11.2
TTTTGTTACTTTTATGTGCACTTATAAAACGAACTA [GTGCAC_site9551]	9.58
GACTTTTCAATTTTTCGTACGTATAAATTGTATACA [XGTACX_site1488]	9.71
TTTTTATTGTTGTACTTATATTATTTTATTATTAAA [GTGCAC_negctrl_site200]	9.72
CTAATATATATCAATTGTACATATTGAATAAGAACA [XGTACX_site4541]	9.64
AAAAAAAAAAAAAAATGTACCCATATATAAATATAT [XGTACX_site4061]	9.51
AAAAAATGGATGATCACACACTTCATAAAAATTGCA [CACACA_site5256]	9.78
TTTAATTATAAAACGTGTACATAATTATAATTACAT [XGTACX_site2206]	9.73

Sequence	gcPBM binding intensity (ln)
ATCATTTGCTCACGCACACACACATAAAAAGAAAAA [CACACA_site4349]	10.2
ATTATGTACAAAATGGTGCAATATTATACATATATA [GTGCAC_site9468]	9.7
AAAAATAGTATAAGTAGTACAACTGAAAAGTTATGT [XGTACX_site7488]	10.1
AAAATAATCACATATTGTACAAAAAAATTTATTAAA [XGTACX_site3239]	9.76
TATATTAATATGAAAAGTACACATTCTATATATATA [XGTACX_site929]	9.54
ACATAATTTGATAATACACACAAATAATCTAAAATT [CACACA_site129]	9.8
TTTATTATCTTATTCACACACATATATAAATATGTA [CACACA_site7369]	9.87
AAAAAAAAAACATACACACACACAAATATTTATATA [CACACA_site437]	10.6
AACATAATAAAAAAACGTACATAATTTTATATACAT [XGTACX_site6602]	9.75
ATATATCCAATATATATATATATATATATATATATA [CACACA_negctrl_site160]	9.55
ACATTCATAAAAAAAAGTACATTTTTTATAAAAGAA [XGTACX_site6197]	9.53
TTGTTAAATATTTATAAAATGAATTTAAAATGTACT [CACACA_negctrl_site665]	9.32
AAGAAAAAATGATGAATAGAGATCAAATCTATATAT [TGCATGCA_negctrl_site29]	9.65
ATAATATAGAAACACACACACATATATATATACATT [CACACA_site555]	10.7
TTTATATATAAATATATATATATATATATATATATA [TGCATGCA_negctrl_site121]	9.33
TAGTTTTTATATAGCACACATATTGTGATTATGTAT [CACACA_site1196]	9.77
AAATTATGTGCCAATACACACACACCGATATATATA [CACACA_site8050]	10.3
TTCTTAGATTGTACAGTACACACCTTTAGAATGTTA [CACACA_site212]	9.77
AATTCATTTTACCCATGTACACAATTATATTTTATA [XGTACX_site4127]	9.67
TACTACCACGGACATGCATGCACATTATTACTCTAA [TGCATGCA_site313]	9.86
ATATATATATGTTTGTGTACTTATGATATCATATAA [XGTACX_site3276]	9.68
AATATATATATATATATTTTTGTTAGAATATGGAAT [GTGCAC_negctrl_site434]	9.62
